# From the supplement of paper PMC8728848
# Some of the results follow.
# Tests used:
# Assay in all cases: glycan array binding signal (z-score within array); higher = stronger binding
# Settings in all cases: glycan notation: IUPAC condensed, linker removed
# [1] = biological target: Neu5Ac(a2-3)Gal(b1-4)GlcNAc(b1-2)[Neu5Ac(a2-3)Gal(b1-4)GlcNAc(b1-4)]Man(a1-3)[GlcNAc(b1-4)][Neu5Ac(a2-3)Gal(b1-4)GlcNAc(b1-2)[Neu5Ac(a2-3)Gal(b1-4)GlcNAc(b1-6)]Man(a1-6)]Man(b1-4)GlcNAc(b1-4)GlcNAc
# Method in brief: (§1)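 Glycan array data were curated from 3228 arrays in the Consortium for Functional Glycomics database and kept only where the protein sequence was available. Glycan names were converted to IUPAC-condensed notation, and columns mapping to the same glycan were averaged. The binding signal is a within-array Z-score, averaged across arrays of the same protein sequence at different concentrations or buffers and across linkers. Negative Z-scores can be read as non-binding.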
# [2] = biological target: Neu5Ac(a2-3)Gal(b1-4)GlcNAc(b1-2)[Neu5Ac(a2-3)Gal(b1-4)GlcNAc(b1-4)]Man(a1-3)[GlcNAc(b1-4)][Neu5Ac(a2-3)Gal(b1-4)GlcNAc(b1-4)Man(a1-6)]Man(b1-4)GlcNAc(b1-4)GlcNAc
# Method in brief: as §1
# [3] = biological target: Neu5Ac(a2-3)Gal(b1-4)GlcNAc(b1-2)[Neu5Ac(a2-3)Gal(b1-4)GlcNAc(b1-6)]Man(a1-6)[Neu5Ac(a2-3)Gal(b1-4)GlcNAc(b1-2)Man(a1-3)][GlcNAc(b1-4)]Man(b1-4)GlcNAc(b1-4)GlcNAc
# Method in brief: as §1
# [4] = biological target: Neu5Ac(a2-3)Gal(b1-4)GlcNAc(b1-3)Gal
# Method in brief: as §1
# [5] = biological target: Neu5Ac(a2-3)Gal(b1-4)GlcNAc(b1-3)Gal(b1-3)GlcNAc
# Method in brief: as §1
# [6] = biological target: Neu5Ac(a2-3)Gal(b1-4)GlcNAc(b1-3)Gal(b1-4)GlcNAc
# Method in brief: as §1
# [7] = biological target: Neu5Ac(a2-3)Gal(b1-4)GlcNAc(b1-3)Gal(b1-4)GlcNAc(b1-2)Man(a1-3)[Neu5Ac(a2-3)Gal(b1-4)GlcNAc(b1-3)Gal(b1-4)GlcNAc(b1-2)Man(a1-6)]Man(b1-4)GlcNAc(b1-4)GlcNAc
# Method in brief: as §1
# [8] = biological target: Neu5Ac(a2-3)Gal(b1-4)GlcNAc(b1-3)Gal(b1-4)GlcNAc(b1-3)Gal(b1-4)GlcNAc
# Method in brief: as §1
# [9] = biological target: Neu5Ac(a2-3)Gal(b1-4)GlcNAc(b1-3)Gal(b1-4)GlcNAc(b1-3)Gal(b1-4)GlcNAc(b1-2)Man(a1-3)[Neu5Ac(a2-3)Gal(b1-4)GlcNAc(b1-3)Gal(b1-4)GlcNAc(b1-3)Gal(b1-4)GlcNAc(b1-2)Man(a1-6)]GalNAc
# Method in brief: as §1
# [10] = biological target: Neu5Ac(a2-3)Gal(b1-4)GlcNAc(b1-3)Gal(b1-4)GlcNAc(b1-3)GalNAc
# Method in brief: as §1
# [11] = biological target: Neu5Ac(a2-3)Gal(b1-4)GlcNAc(b1-3)Gal(b1-4)GlcNAc(b1-3)[Neu5Ac(a2-3)Gal(b1-4)GlcNAc(b1-3)Gal(b1-4)GlcNAc(b1-6)]GalNAc
# Method in brief: as §1
# [12] = biological target: Neu5Ac(a2-3)Gal(b1-4)GlcNAc(b1-3)Gal(b1-4)GlcNAc(b1-6)[Gal(b1-3)]GalNAc
# Method in brief: as §1
# [13] = biological target: Neu5Ac(a2-3)Gal(b1-4)GlcNAc(b1-3)Gal(b1-4)[Fuc(a1-3)]GlcNAc
# Method in brief: as §1
# [14] = biological target: Neu5Ac(a2-3)Gal(b1-4)GlcNAc(b1-3)GalNAc
# Method in brief: as §1
# [15] = biological target: Neu5Ac(a2-3)Gal(b1-4)GlcNAc(b1-3)[Neu5Ac(a2-3)Gal(b1-4)GlcNAc(b1-6)]GalNAc
# Method in brief: as §1
# [16] = biological target: Neu5Ac(a2-3)Gal(b1-4)GlcNAc(b1-6)GalNAc
# Method in brief: as §1
# [17] = biological target: Neu5Ac(a2-3)Gal(b1-4)GlcNAc(b1-6)[Gal(b1-3)]GalNAc
# Method in brief: as §1
# [18] = biological target: Neu5Ac(a2-3)Gal(b1-4)GlcNAc(b1-6)[Neu5Ac(a2-3)Gal(b1-3)]GalNAc
# Method in brief: as §1
# [19] = biological target: Neu5Ac(a2-3)Gal(b1-4)GlcNAc6S
# Method in brief: as §1
# [20] = biological target: Neu5Ac(a2-3)Gal(b1-4)[Fuc(a1-3)]GlcNAc
# Method in brief: as §1
# [21] = biological target: Neu5Ac(a2-3)Gal(b1-4)[Fuc(a1-3)]GlcNAc(b1-2)Man
# Method in brief: as §1
# [22] = biological target: Neu5Ac(a2-3)Gal(b1-4)[Fuc(a1-3)]GlcNAc(b1-3)Gal
# Method in brief: as §1
# [23] = biological target: Neu5Ac(a2-3)Gal(b1-4)[Fuc(a1-3)]GlcNAc(b1-3)Gal(b1-4)GlcNAc
# Method in brief: as §1
# [24] = biological target: Neu5Ac(a2-3)Gal(b1-4)[Fuc(a1-3)]GlcNAc(b1-3)Gal(b1-4)[Fuc(a1-3)]GlcNAc(b1-3)Gal(b1-4)[Fuc(a1-3)]GlcNAc
# Method in brief: as §1
# [25] = biological target: Neu5Ac(a2-3)Gal(b1-4)[Fuc(a1-3)]GlcNAc(b1-3)GalNAc
# Method in brief: as §1
# [26] = biological target: Neu5Ac(a2-3)Gal(b1-4)[Fuc(a1-3)]GlcNAc(b1-6)[Gal(b1-3)]GalNAc
# Method in brief: as §1
# [27] = biological target: Neu5Ac(a2-3)Gal(b1-4)[Fuc(a1-3)]GlcNAc(b1-6)[Neu5Ac(a2-3)Gal(b1-3)]GalNAc
# Method in brief: as §1
# [28] = biological target: Neu5Ac(a2-3)Gal(b1-4)[Fuc(a1-3)]GlcNAc6S
# Method in brief: as §1
# [29] = biological target: Neu5Ac(a2-3)Gal6S(b1-4)GlcNAc
# Method in brief: as §1
# [30] = biological target: Neu5Ac(a2-3)Gal6S(b1-4)[Fuc(a1-3)]GlcNAc
# Method in brief: as §1
# Neu5Ac(a2-3)GalNAc = biological target: Neu5Ac(a2-3)GalNAc
# Method in brief: as §1
# [31] = biological target: Neu5Ac(a2-3)GalNAc(b1-4)GlcNAc
# Method in brief: as §1
# [32] = biological target: Neu5Ac(a2-3)[GalNAc(b1-4)]Gal(b1-4)Glc
# Method in brief: as §1
# [33] = biological target: Neu5Ac(a2-3)[GalNAc(b1-4)]Gal(b1-4)GlcNAc
# Method in brief: as §1
# [34] = biological target: Neu5Ac(a2-3)[GalNAc(b1-4)]Gal(b1-4)GlcNAc(b1-3)GalNAc
# Method in brief: as §1
# [35] = biological target: Neu5Ac(a2-3)[Neu5Ac(a2-6)]GalNAc
# Method in brief: as §1
# Neu5Ac(a2-6)Gal = biological target: Neu5Ac(a2-6)Gal
# Method in brief: as §1
binder,measurement,setting,value
B725 (Bifidobacterium sp) (protein) MNNTTRAVIATAAIGALLIPLAGCGNTTTSSGKTELTVWSWDASIDRAAKSFMKANPDITVKVSNVGSTEETYTALNNAAQAGSGLPDVTLIEYLAIPQFVHSDTLMDLSKVYNTAKLKDTFTPGTWNSVNINGGLYAMPADSGPMAYFYDKDVFDKAGISEPPTTWDEFYEDAKKIRATGSYITSDSGDAGLFNAMMWAMGGHAYKLNDDKLTINIAKDKGAQRFMDLWQKMRDEDLIDVHTKTWTDDWMKSLGDGSIASLISGAWMANNLLQGVPQATGKFRVALLPTIDGTPINGEYGGSGLAITKKIPDGKLDAAKKFVEYVTTNDEGIDARVSNGSFPATTKTLNQKDFLAKTTLRNTDGSDNEFFGGQKYNEIFSQAAKDVTGKWEFLPFEPYARSVYNDNMGSFFAGKTSFRTAADNWQKALKDYAKDQGFTVQ,glycan array binding signal (z-score),[1],-0.223
same,glycan array binding signal (z-score),[2],-0.218
same,glycan array binding signal (z-score),[3],-0.231
same,glycan array binding signal (z-score),[4],-0.226
same,glycan array binding signal (z-score),[5],-0.221
same,glycan array binding signal (z-score),[6],-0.227
same,glycan array binding signal (z-score),[7],0.044
same,glycan array binding signal (z-score),[8],0.601
same,glycan array binding signal (z-score),[9],-0.042
same,glycan array binding signal (z-score),[10],-0.193
same,glycan array binding signal (z-score),[11],-0.054
same,glycan array binding signal (z-score),[12],-0.203
same,glycan array binding signal (z-score),[13],-0.21
same,glycan array binding signal (z-score),[14],-0.207
same,glycan array binding signal (z-score),[15],-0.216
same,glycan array binding signal (z-score),[16],-0.229
same,glycan array binding signal (z-score),[17],-0.216
same,glycan array binding signal (z-score),[18],-0.223
same,glycan array binding signal (z-score),[19],-0.222
same,glycan array binding signal (z-score),[20],-0.227
same,glycan array binding signal (z-score),[21],-0.162
same,glycan array binding signal (z-score),[22],-0.224
same,glycan array binding signal (z-score),[23],-0.19
same,glycan array binding signal (z-score),[24],-0.217
same,glycan array binding signal (z-score),[25],-0.193
same,glycan array binding signal (z-score),[26],-0.206
same,glycan array binding signal (z-score),[27],-0.223
same,glycan array binding signal (z-score),[28],-0.234
same,glycan array binding signal (z-score),[29],-0.229
same,glycan array binding signal (z-score),[30],-0.233
same,glycan array binding signal (z-score),Neu5Ac(a2-3)GalNAc,-0.229
same,glycan array binding signal (z-score),[31],-0.216
same,glycan array binding signal (z-score),[32],-0.23
same,glycan array binding signal (z-score),[33],-0.23
same,glycan array binding signal (z-score),[34],-0.222
same,glycan array binding signal (z-score),[35],-0.228
same,glycan array binding signal (z-score),Neu5Ac(a2-6)Gal,-0.222
